The nature of assay [1]: APR_HepG2_MitoticArrest_72hr: Apredica 72-hour HepG2 Assay for Mitotic Arrest (AID 2282918). The settings on record: high-content imaging, actives raise or lower the signal. The procedure, abridged:
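Mitotic arrest in HepG2 is scored from phospho-histone H3 staining after 72 hr dosing across 0.39–200 uM, with DMSO at 0.5% v/v. Nuclei are identified by Hoechst 33342 and fluorescence intensity is quantified per cell.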

Assay [2] addresses human Retinoid X Receptor beta (RXRb), RXRB (gene 6257) (UniProt P28702). Put plainly: ATG_RXRb_TRANS: Attagene TRANS-FACTORIAL HepG2 Assay for human Retinoid X Receptor beta (RXRb) (AID 2283013; active = hit-call score of the fitted dose curve at least 0.9, where 1 is the maximum). The procedure, abridged:
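HepG2 cells were transiently transfected with multiplexed GAL4-UAS reporters and a chimeric RXRb-Gal4 construct, then exposed for 24 h. Reporter mRNA was quantified by RT-PCR, FAM labeling, HpaI digestion and capillary electrophoresis; gain of signal was scored against DMSO.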

Read-out in assay [3]: Thrombomodulin, THBD (gene 7056)
As to the kind of experiment: BSK_CASM3C_Thrombomodulin: BioMAP Diversity Plus: CASM3C Assay for Thrombomodulin Biomarker Activity (AID 2283051).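 Also: thrombomodulin protein level measured by ELISA 24 h after dosing.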 To be noted: actives raise or lower the signal; primary human coronary artery smooth muscle cells.

Read-out in assay [4]: Interferon-gamma inducible Protein 10 (IP10), CXCL10 (gene 3627)
Put plainly: BSK_hDFCGF_IP10: BioMAP Diversity Plus: hDFCGF Assay for Interferon-gamma inducible Protein 10 (IP10) Biomarker Activity (AID 2283053). To be noted: actives raise or lower the signal; primary human foreskin fibroblasts. The procedure, abridged:
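Primary human foreskin fibroblasts exposed to chemicals for 24 h. IP-10 measured by ELISA; changes fitted bidirectionally against DMSO baseline.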

Read-out in assay [5]: Collagen III, COL3A1 (gene 1281)
As to the kind of experiment: BSK_hDFCGF_CollagenIII: BioMAP Diversity Plus: hDFCGF Assay for Collagen III Biomarker Activity (AID 2283056). To be noted: actives raise or lower the signal; primary human foreskin fibroblasts. The procedure, abridged: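 Cells: human foreskin fibroblasts, primary. Dosing followed by 24 h incubation, then ELISA for collagen III. Both increases and decreases scored relative to DMSO.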

Assay [6] can be described thus: BSK_hDFCGF_SRB: Viability Assessment in the BioMAP Diversity Plus: hDFCGF Assay (AID 2283061).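 Also: cells exposed to compound for 24 h before the read.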 The settings on record: primary human foreskin fibroblasts. The procedure, abridged:
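Cells were dosed with test chemical, cultured 24 h, fixed with 10% TCA, then stained with 0.1% SRB and read at 560 nm. The fibroblasts were human foreskin primary cells, and DMSO served as baseline.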

Read-out in assay [7]: Intercellular Adhesion Molecule 1 (ICAM1), ICAM1 (gene 3383)
Put plainly: BSK_KF3CT_ICAM1: BioMAP Diversity Plus: KF3CT Assay for Intercellular Adhesion Molecule 1 (ICAM1) Biomarker Activity (AID 2283067). To be noted: actives raise or lower the signal; primary human keratinocytes with fibroblasts. The procedure, abridged: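 Dose the keratinocyte/fibroblast co-culture, wait 24 h, measure ICAM-1 by ELISA, then fit increases or decreases against DMSO. Cytotoxicity is checked in parallel cultures by SRB total-protein staining.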

Read-out in assay [8]: Interferon-gamma inducible Protein 10 (IP10), CXCL10 (gene 3627)
Put plainly: BSK_KF3CT_IP10: BioMAP Diversity Plus: KF3CT Assay for Interferon-gamma inducible Protein 10 (IP10) Biomarker Activity (AID 2283068). The settings on record: actives raise or lower the signal; primary human keratinocytes with fibroblasts. The procedure, abridged: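 Signal is secreted/surface IP-10 by ELISA in a human primary skin co-culture of keratinocytes and foreskin fibroblasts, taken 24 h post-dosing; DMSO served as negative control.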

Read-out in assay [9]: TIMP metallopeptidase inhibitor 2 (TIMP2), TIMP2 (gene 7077)
As to the kind of experiment: BSK_KF3CT_TIMP2: BioMAP Diversity Plus: KF3CT Assay for TIMP metallopeptidase inhibitor 2 (TIMP2) Biomarker Activity (AID 2283071). To be noted: actives raise or lower the signal; primary human keratinocytes with fibroblasts. The procedure, abridged:
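Co-culture of human primary keratinocytes and foreskin fibroblasts, measured 24 h after chemical dosing. TIMP-2 quantified by ELISA and fitted in both directions relative to DMSO. Cytotoxicity checked in parallel cultures by SRB total-protein staining.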

Read-out in assay [10]: C-C motif chemokine 2 (Homo sapiens) (UniProt P13500)
Put plainly: BSK_KF3CT_MCP1: BioMAP Diversity Plus: KF3CT Assay for Monocyte Chemoattractant Protein 1 (MCP1/CCL2) Biomarker Activity (AID 2283073). To be noted: actives raise or lower the signal; primary human keratinocytes with fibroblasts. The procedure, abridged: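 Keratinocytes and foreskin fibroblasts were co-cultured, dosed with chemical, and sampled 24 h later. MCP-1 was quantified by ELISA, and the endpoint was analyzed with bidirectional fitting using DMSO as negative control.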

Read-out in assay [11]: Matrix Metallopeptidase 9 (MMP9), MMP9 (gene 4318)
Put plainly: BSK_KF3CT_MMP9: BioMAP Diversity Plus: KF3CT Assay for Matrix Metallopeptidase 9 (MMP9) Biomarker Activity (AID 2283074).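 Also: MMP9 protein level quantified by ELISA in the co-culture.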 The settings on record: actives raise or lower the signal; primary human keratinocytes with fibroblasts. The procedure, abridged:
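Human keratinocyte and foreskin fibroblast co-culture exposed to chemicals for 24 h; MMP9 biomarker measured by ELISA, bidirectional fitting relative to DMSO; cytotoxicity tracked by SRB total protein staining in parallel cultures.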

Assay [12] in a line: BSK_LPS_PGE2: BioMAP Diversity Plus: LPS Assay for Prostaglandin E2 (PGE2) Biomarker Activity (AID 2283082). To be noted: actives raise or lower the signal; primary human HUVEC with PBMC. The procedure, abridged: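 HUVEC plus human PBMC co-culture stimulated with LPS; secreted PGE2 quantified by ELISA 24 h after chemical dosing. Activity fitted bidirectionally against DMSO baseline; parallel SRB staining (0.1% SRB after 10% TCA fixation, 560 nm) flags overt cytotoxicity.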

The subject of assay [13] is guinea pig Leukotriene B4 Receptor (LTB4), gene 100379538. Put plainly: NVS_GPCR_gLTB4: NovaScreen (NVS) G Protein-Coupled Receptor Assay for guinea pig Leukotriene B4 Receptor (LTB4) (AID 2283247; active = hit-call score of the fitted dose curve at least 0.9, where 1 is the maximum). The procedure, abridged:
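Radioligand displacement on guinea pig spleen membranes, filter-based scintillation counting 2 h after dosing. Primary duplicate single point at 25 uM; hits over threshold (e.g. 30% inhibition) run in concentration-response up to 50 uM, DMSO baseline.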

The target of assay [14] is Glucocorticoid receptor (Homo sapiens) (UniProt P04150). Put plainly: NVS_NR_hGR: NovaScreen (NVS) Nuclear Receptor Binding Assay for human Glucocorticoid Receptor (GR) (AID 2283363; active = hit-call score of the fitted dose curve at least 0.9, where 1 is the maximum;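 also: activity is loss of specific radioligand binding signal relative to DMSO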). The procedure, abridged:
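Cell-free radioligand displacement assay on extracted human GR, read 16 h after dosing by filter-based scintillation counting. Screened in duplicate at 25 uM, then concentration series for actives; loss of signal versus DMSO baseline.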

Assay [15] in a line: ATG_XTT_Cytotoxicity: Cytotoxicity Assessment in the Attagene TRANS-FACTORIAL HepG2 Assay (AID 2283584; active = hit-call score of the fitted dose curve at least 0.9, where 1 is the maximum;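 also: XTT signal for cell number as viability in transfected HepG2 cells; cells exposed to compound for 24 h before reading; active means loss of viability signal versus DMSO baseline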). The procedure, abridged: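 Transfect HepG2 with GAL4-UAS reporter units, dose compound, incubate 24 h, then measure viable cell number by XTT. Fit concentration response against DMSO baseline.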

The text below walks through data of PubChem BioAssay (EPA / NIEHS).

For orientation: AC50 means the midpoint of the concentration-response curve, whichever way the signal moves.

Certain results were filed several times, with different values. The other results are left out here. There may be further records. The records of an entry are repeated measurements (runs, samples, wells, individuals or studies). Inconclusive results are not listed. The calls were made as follows, unless noted: active = hit-call score of the fitted dose curve at least 0.9, where 1 is the maximum; inactive = score below 0.9. Brackets with × say how often a value occurs here. A structure can be active in one record and inactive in another.

UniProt P04150, sequence (P04150 whole entry, looked up): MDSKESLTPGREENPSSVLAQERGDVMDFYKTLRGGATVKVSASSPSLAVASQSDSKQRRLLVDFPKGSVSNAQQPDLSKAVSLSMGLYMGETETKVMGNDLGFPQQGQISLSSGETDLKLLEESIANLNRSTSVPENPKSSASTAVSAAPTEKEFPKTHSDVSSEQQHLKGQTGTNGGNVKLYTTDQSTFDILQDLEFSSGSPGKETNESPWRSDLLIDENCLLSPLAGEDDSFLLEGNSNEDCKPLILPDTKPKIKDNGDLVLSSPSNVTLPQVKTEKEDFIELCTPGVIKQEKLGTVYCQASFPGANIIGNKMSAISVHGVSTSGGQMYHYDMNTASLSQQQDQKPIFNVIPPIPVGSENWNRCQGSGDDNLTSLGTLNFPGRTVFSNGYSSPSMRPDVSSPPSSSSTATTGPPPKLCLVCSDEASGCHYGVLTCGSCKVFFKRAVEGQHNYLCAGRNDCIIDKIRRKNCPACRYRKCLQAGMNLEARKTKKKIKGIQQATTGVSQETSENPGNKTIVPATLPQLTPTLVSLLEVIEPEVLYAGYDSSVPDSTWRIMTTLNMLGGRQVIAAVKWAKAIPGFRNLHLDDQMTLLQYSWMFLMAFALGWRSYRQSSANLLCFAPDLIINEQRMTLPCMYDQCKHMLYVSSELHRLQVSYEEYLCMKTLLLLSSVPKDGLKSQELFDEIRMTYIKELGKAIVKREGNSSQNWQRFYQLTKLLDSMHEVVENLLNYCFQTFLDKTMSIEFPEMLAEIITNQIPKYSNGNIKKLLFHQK
C-C motif chemokine 2 (Homo sapiens), sequence (P13500 whole entry, looked up): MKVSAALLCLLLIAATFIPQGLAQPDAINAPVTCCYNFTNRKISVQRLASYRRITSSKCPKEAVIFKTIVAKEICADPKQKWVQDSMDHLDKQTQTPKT
UniProt P28702, sequence (P28702 whole entry, looked up, the tested form may be a part): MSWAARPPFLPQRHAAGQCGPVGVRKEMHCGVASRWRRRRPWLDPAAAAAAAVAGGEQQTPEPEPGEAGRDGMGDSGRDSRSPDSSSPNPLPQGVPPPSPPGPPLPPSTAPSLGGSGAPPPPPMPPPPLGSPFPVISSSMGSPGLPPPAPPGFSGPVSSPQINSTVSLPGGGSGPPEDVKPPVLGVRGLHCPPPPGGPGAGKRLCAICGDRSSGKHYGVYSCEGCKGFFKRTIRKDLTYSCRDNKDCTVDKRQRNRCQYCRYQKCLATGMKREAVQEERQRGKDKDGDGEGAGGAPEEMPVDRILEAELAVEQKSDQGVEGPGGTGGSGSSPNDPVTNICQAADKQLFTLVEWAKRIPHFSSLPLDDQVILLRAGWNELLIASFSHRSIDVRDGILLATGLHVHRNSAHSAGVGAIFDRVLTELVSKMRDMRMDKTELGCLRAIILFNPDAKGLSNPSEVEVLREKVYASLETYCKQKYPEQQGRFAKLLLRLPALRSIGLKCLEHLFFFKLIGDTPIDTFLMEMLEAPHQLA

For the compound `Oc1ccc(Cl)cc1Cc1ccccc1`, the AC50 result is “active: 101, 74.1, 27.8, 72.3 µM [separate samples]” in assay [1]; “active: 5.64, 6.82, 7.31, 4.94, 6.81, 4.52, 4.25, 3.9, 2.36 µM [separate samples]” in assay [2]; “active: 4.69, 4.9, 13.2, 6.77, 25 µM [separate samples]” in [3]; “active: 27.1, 10.9, 14.8, 24.2, 8.74, 25.4, 29 µM [separate samples]” in assay [4]; “active: 15.3, 8.78, 29.3, 15.1, 9.38, 13.5, 28.6 µM [separate samples]” in assay [5]; “active: 29.6, 12.7, 18.5, 19.1, 8.05, 16.8, 28.9 µM [separate samples]” in assay [6]. In addition, the AC50 result is “active: 31.4, 38.2, 39.2, 32.2, 8.88, 31.7, 36.7 µM [separate samples]” in assay [7]; “active: 37.8, 32.3, 37.9, 29.3, 9.81, 28.7, 29.6 µM [separate samples]” in assay [8]; “active: 32.5, 29.8, 34.7, 25.4, 6.4, 24, 31 µM [separate samples]” in assay [9]; “active: 32.8, 28.9, 31.9, 29.5, 9.68, 29.1, 30 µM [separate samples]” in assay [10]; “active: 31.2, 27.6, 32.4, 25.7, 7.03, 26.1, 28.5 µM [separate samples]” in [11]; “active: 12.7, 5.24, 3.49, 3.34, 3.36, 3.66, 4.24 µM [separate samples]” in assay [12]. For the same compound, the concentration at half-maximal activity (AC50) entry in assay [13] was “active: 20, 25.2 (2×), 5.01 (2×), 20.8 µM [separate samples]”; in assay [14] it was “active: 6.51, 25.2 (2×), 16.3, 14.8, 17.4, 8.65 µM [separate samples]”; in assay [15], “active: 132, 54.5, 144, 40.1 µM [separate samples]”.
